Test results reported in PMC4336329 (PLoS ONE, 2015).
About 2,200 (0.71%) of roughly 310,000 compounds showed an effect of 50% or more. The effect is printed as a negative number. Some of the results follow.

molecular target: human ether-à-go-go-related gene (hERG) potassium channel (human, UniProt Q12809); assay: primary screen, population patch clamp on CHO cells stably expressing hERG
Sequence (Q12809 whole entry, looked up): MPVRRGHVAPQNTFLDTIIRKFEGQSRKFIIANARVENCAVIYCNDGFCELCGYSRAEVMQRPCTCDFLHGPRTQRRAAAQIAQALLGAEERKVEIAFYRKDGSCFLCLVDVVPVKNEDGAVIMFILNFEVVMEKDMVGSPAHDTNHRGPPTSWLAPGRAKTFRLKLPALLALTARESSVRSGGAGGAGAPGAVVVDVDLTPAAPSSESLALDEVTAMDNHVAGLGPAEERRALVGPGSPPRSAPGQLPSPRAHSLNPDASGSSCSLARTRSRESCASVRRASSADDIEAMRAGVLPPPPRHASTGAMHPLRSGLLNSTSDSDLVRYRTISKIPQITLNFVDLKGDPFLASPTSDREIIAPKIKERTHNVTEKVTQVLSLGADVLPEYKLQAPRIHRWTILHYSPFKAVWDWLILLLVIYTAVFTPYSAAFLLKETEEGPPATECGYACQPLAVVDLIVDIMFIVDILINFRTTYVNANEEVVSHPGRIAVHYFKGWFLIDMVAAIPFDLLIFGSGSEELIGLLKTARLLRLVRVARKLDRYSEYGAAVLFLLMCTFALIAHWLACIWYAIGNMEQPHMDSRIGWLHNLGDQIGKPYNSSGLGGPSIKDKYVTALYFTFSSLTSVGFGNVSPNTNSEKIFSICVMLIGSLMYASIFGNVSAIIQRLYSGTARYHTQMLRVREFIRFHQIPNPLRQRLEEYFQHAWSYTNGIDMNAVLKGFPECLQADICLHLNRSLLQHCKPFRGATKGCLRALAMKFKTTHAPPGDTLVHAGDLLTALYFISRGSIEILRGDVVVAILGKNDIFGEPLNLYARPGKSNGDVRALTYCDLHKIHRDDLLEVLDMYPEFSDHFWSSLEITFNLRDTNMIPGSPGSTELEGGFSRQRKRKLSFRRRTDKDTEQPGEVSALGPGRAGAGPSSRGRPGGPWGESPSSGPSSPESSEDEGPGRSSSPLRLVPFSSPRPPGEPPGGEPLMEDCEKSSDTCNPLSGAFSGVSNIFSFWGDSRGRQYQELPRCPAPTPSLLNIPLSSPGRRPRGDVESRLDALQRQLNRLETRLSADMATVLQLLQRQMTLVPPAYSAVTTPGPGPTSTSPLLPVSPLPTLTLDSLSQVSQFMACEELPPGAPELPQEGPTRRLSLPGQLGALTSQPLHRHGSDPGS

Row | Compound | hERG current change (%, negative = inhibition) at 1uM
1 | CCN1CCN(CC(=O)Nc2c(OC)cccc2OC)CC1.O=C(O)C(=O)O | 4.34%
2 | CN1CCN(CC(=O)N2c3ccccc3C(C)(c3ccccc3)CC2(C)C)CC1 (stereo not shown) | -0.562%
3 | CCOC(=O)c1cnc2nc(N3CCOCC3)nn2c1N | 2.83%
4 | O=C(NCc1ccccn1)c1ccc(Cn2c(=S)[nH]c3ccc(Br)cc3c2=O)cc1 | 12%
5 | CC(C)(C)c1ccc(S(=O)(=O)N2C=CC(C(F)(F)F)=NCC2)cc1 | 6.78%
6 | CC(=O)NCC1CCCN(c2nc3nonc3nc2N(C)Cc2ccccc2)C1 (stereo not shown) | 1.67%
7 | CCOC(=O)C1=C(C)Nc2sc(C(=O)c3ccc(Br)cc3)c(N)c2C1c1ccc(C(=O)OC)cc1 (stereo not shown) | 19.7%
8 | CCn1cc(C(=O)O)c(=O)c2cnc(N3CCN(C(=S)NC(=O)c4ccc(OC)cc4)CC3)nc21 | 8.66%
9 | CCOc1ccccc1C(=O)Oc1ccc2ccc(=O)oc2c1 | 13.7%
10 | COc1ccc(-c2csc(NC(=O)C3CSC4(C)CCC(=O)N34)n2)cc1OC (stereo not shown) | 13.3%
11 | CCOc1ccc(NC(=O)CN(C)Cc2ccc3c(c2)OCO3)cc1S(=O)(=O)N1CCCC1 | -8.73%
12 | CCOC(=O)C(C)Sc1nnc(Cc2cc(=O)[nH]c(=O)[nH]2)n1-c1ccc(Cl)cc1 (stereo not shown) | 6.6%
13 | CC1=C(O)C(=O)OC1c1c(Cl)cccc1Cl (stereo not shown) | 9.87%
14 | CCCN(CCO)Cc1cccc(Cl)c1 | 1.92%
15 | CCCn1c2c(c(O)c(C(=O)NCCCN(CC)CC)c1=O)CCCC2.Cl | -8.64%
16 | Cn1nc(CC(=O)NC2CCCCC2)c2ccccc2c1=O | 0.85%
17 | O=C(Nc1ccccc1C(F)(F)F)c1ccccc1Br | 2.19%
18 | O=C(NCc1cccc(Cl)c1)c1cccc(OC2CCN(C(=O)C3CC3)CC2)c1 | 6.93%
19 | Cc1ccc2nc(N3C(=O)C(O)=C(C(=O)c4ccc(C)o4)C3c3ccco3)sc2c1 (stereo not shown) | 9.05%
20 | N#C/C(=C1\CCCN1)c1ccc2ccccc2n1 | 8.93%
21 | COc1cccc(C(=O)Nc2nnc(-c3ccc(OC)cc3OC)s2)c1 | 10.8%
22 | Cc1ccc(-c2nc(CS(=O)CC(=O)NCc3ccccc3)c(C)o2)cc1 (stereo not shown) | -4.18%
23 | Cc1ccc(S(=O)(=O)NCCN=C(CN2CCOCC2)NS(=O)(=O)c2ccc(C)cc2)cc1 | 6.4%
24 | COCCCNC(=O)CN1C(=O)/C(=C/c2ccccc2)Sc2ccccc21 | 1.6%
25 | O=C(NCc1ccccc1F)C(c1ccccc1)c1ccccc1 | 10%
26 | Nn1c(-c2ccccc2)nc2cc(Cl)ccc2c1=O | 3.08%
27 | CC(C)=CC(=O)Nc1nnc(-c2cccnc2)s1 | 19.9%
28 | CC1(C)CC(=O)C(C=NCCN2CCN(CCCCS(=O)(=O)O)CC2)=C(O)C1 | 11.3%

Row | Compound | hERG current change (%, negative = inhibition) at 1uM
29 | O=C(Cc1ncc(C(F)(F)F)cc1Cl)Nc1cccc(Br)c1 | 1.88%
30 | Cc1ccc(S(=O)(=O)N2CCC(=O)N(CCOC(=O)NCc3ccccc3)CC2)cc1 | -7.2%
31 | c1cnc(N2CCN(c3nc4ccccc4n4cnnc34)CC2)nc1 | -7.08%
32 | O=c1c(C(c2ccc(O)cc2)c2c(O)nc3n(c2=O)CCS3)c(O)nc2n1CCS2 | 0.171%
33 | CCn1c(SCC(=O)Nc2nccc(C)n2)nc2ccccc21 | 8.34%
34 | CCCn1cnnc1CNC(=O)C1CCC(=O)N(CCc2cccc(F)c2)C1 (stereo not shown) | 21.5%
35 | Cc1ccc(NC(=O)c2cccnc2)cc1C | 15.5%
36 | COc1ccc(S(=O)(=O)NCC2CCCN(C(=O)c3occc3C)C2)cc1 (stereo not shown) | 20.4%
37 | O=C1CC(c2ccccc2)CC(O)=C1C=NCCN1CCOCC1 (stereo not shown) | 8.09%
38 | COc1cccc(CNC(=O)c2nnn(CC(=O)Nc3ccc(C)c(C)c3)c2N)c1 | 2.54%
39 | O=C(CSc1ncn[nH]1)Nc1ccccc1C(=O)O | 0.493%
40 | COc1ccc(-c2nn(-c3ccccc3)cc2/C=N/Nc2ccccn2)cc1OC | 15.6%
41 | O=C1OC(C(=O)Nc2ccccc2)Cc2ccccc21 (stereo not shown) | 13.2%
42 | Cc1cccc(N2CCN(C(=O)c3csc4ccccc34)CC2C)c1 (stereo not shown) | 13.2%
43 | COc1ccc(/C=N/NC(=O)Cc2cccs2)cc1 | 10.8%
44 | Cc1c(C(=O)O)cccc1-n1c(C)cc(/C=C2\C(=O)NC(=O)N(c3ccc4c(c3)OCO4)C2=O)c1C | 13.9%
45 | COC(=O)CCc1c(COC(C)=O)[nH]c(C(=O)OCc2ccccc2)c1C | 16.2%
46 | COc1ccc(N2CC(C(=O)N[C@@H](C)C(=O)NC(C)c3ccccc3)CC2=O)cc1 (stereo partly shown) | 2.84%
47 | Cc1nc(NCc2ccccn2)c2c3c(sc2n1)CCCC3 | -3.35%
48 | Cc1noc(C)c1COc1ccc(CC(=O)NCCc2ccccc2)cc1 | 9.17%
49 | Cc1nnc(C)c2c(C)n(C(c3ccccc3)c3ccccc3)c(C)c12 | -65.7%
50 | COC(=O)c1ccccc1NC(=O)CSc1n[nH]c(-c2ccncc2)n1 | 10.3%
51 | COC(=O)c1ccccc1OCC(=O)N1CCN(c2ccc(F)cc2)CC1 | -13.7%
52 | COC(=O)C1=C(C)N(Cc2ccccc2)C(=O)N[C@H]1CCc1ccccc1 | 9.45%
53 | Cc1cc(C)cc(NC(=O)CN2C(=O)COc3ccc(S(=O)(=O)N4CCCC4)cc32)c1 | 10.1%
54 | COC(=O)Cc1c[nH]c2cccc(OCC(O)CN(Cc3ccc([N+](=O)[O-])cc3)C(C)(C)C)c12.Cl (stereo not shown) | 4.16%
55 | COc1ccc(S(=O)(=O)N2Cc3ccccc3CC2C(=O)N2CCOCC2)cc1 (stereo not shown) | -1.68%
